# Reference: the supplement of paper PMC11417369
# The other results are listed elsewhere or left out.
# System: PF3D7_0420300 AP2 domain 1 (GST-tagged)
# Assay: gcPBM binding intensity (ln(normalized median fluorescence intensity)); higher = stronger DNA binding
# In short: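 Binding intensity is the highest Masliner-normalised natural-log median intensity over replicate spots in either probe orientation. To obtain it, GST-tagged P. falciparum DNA-binding domains made in E. coli were incubated for 1 h on an Agilent 4 × 180k array of primer-extended double-stranded 36-bp intergenic genomic probes plus negative controls. Detection used Alexa488 anti-GST antibody with scanning at 488 nm.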
row,Sequence,gcPBM binding intensity (ln)
1,ATATCAAACTAGAATGTGCGCATGCATTCAAGTTTT,9.07
2,TTATGTTCATTATATGCACACATATATATAAATGTA [CACACA_site8947],9.24
3,GATTTTATAATTTCTACACACATATAAGAATATTCA [CACACA_site2802],9.5
4,ATATATTTATATTTGTGTACATATTTATTATATTTA [XGTACX_site404],9.36
5,ATTTGTGACCACACAAATAAATAAATAAAAAAAAAA [TGCATGCA_negctrl_site328],9.03
6,AATATGAATATCTATACACACACATATATATACACA [CACACA_site8459],9.87
7,TAATAATAGAAACACACACACATTTTTAATAATACA [CACACA_site1216],10.1
8,GGTATACATAATACTTGTACTAGGCAACAATAAGAT [XGTACX_site1437],9.59
9,AAGAAGAAAAACCATTGTACGAACTAACATATATAA [XGTACX_site3226],9.59
10,TGTTAAAAGAAAAAAAGTACAAAAAATTATACATTT [XGTACX_site467],9.17
11,TATATTTTATATTAGTGTACAAATTTCATTTTTCAT [XGTACX_site2204],9.13
12,AATATATATAAAAAAGTGCATTAGGATAACCATATA [GTGCAC_site9590],9.63
13,TATATATATATATTCACACATATAGTATTGTATTTA [CACACA_site5147],9.32
14,TCGCAAATAAATTAATGTACACATATATATATATAT [XGTACX_site5145],9.2
15,TATTGATAATTTTATATATACATACATAAATAAATA [CACACA_negctrl_site1687],8.93
16,TTTTCAATTTTTTATGAACACACAAAAAAAAAAAAA [CACACA_site8808],8.77
17,AGTTTCTATTTAGTGTGTACTTAAGAAAAATATCTC [XGTACX_site82],9.19
18,AAATGTATATATGTATGTACATATATATATATATAT [XGTACX_site5778],9.16
19,ATAAACTGAGTGGTTACACACAAAACCAATAATTTT [CACACA_site3478],9.61
20,ATATATATATATATATGTACTCATATTTTATTATTT [XGTACX_site898],9
21,TAAAAAAAAACAGAAACACACATTATTCATATAGAT [CACACA_site7052],9.78
22,AAAAGCACCGTTCGTTGTACACTGAAACACTTTTGT [XGTACX_site199],9.28
23,GTTATAAATTTTTTTTTTTTTTTTTTTTTTTTTTTT [CACACA_negctrl_site848],9.27

row,Sequence,gcPBM binding intensity (ln)
1,ATAAAATAAAAGGAATGTACTTTTTTTATTGTAATT [XGTACX_site4372],9.14
2,AACAAATACGGACACACACACACACTAGAAAAAAAA [CACACA_site4442],10.2
3,AACAAATTGAAACAATAATTGGAAAAAAAAAAAAAA [CACACA_negctrl_site1145],9.06
4,ACTAATGTAAAAGTTTGTACATATATTGAGAATTAT [XGTACX_site7439],9.2
5,ATTTTTTTCCACTAGTGTACAAATTTTACATTGTGT [XGTACX_site5023],9.47
6,CTATAATATTAGTGCACACACAAAAATGTACTAAAC [CACACA_site6442],9.67
7,AAGAAAAAAACAAAAAAAAAAAAAAAAATTCTTATT [TGCATGCA_negctrl_site504],9.12
8,AATAATAATAAAAATAAACACACATATATATGTATA [CACACA_site8928],9.49
9,ATTTCTTTTGTTATAGTGCATAATATTTATGTACGT,9.31
10,AAAGAAAGAAAGAAAAGTACTTAAACTTTTAAAAAT [XGTACX_site8531],9.19
11,ATATTAATATATAGAAGTACTCACATGTTAATATAA [XGTACX_site7323],9.3
12,TAACTATCATGTATTACACACAATATTTATTATATA [CACACA_site2701],9.52
13,TTAAATAAATAAATAACACACATATAAAAATAACGC [CACACA_site3266],9.67
14,TATTCAAATTTCCACATACACACCTTGTAGATATAT [CACACA_site281],9.35
15,AAGAAAAAAAGCAACACACGTACCAACACAATTATG [CACACA_site3133],9.9
16,AAGACAAATTTTACATGTACAAATATATTACATATA [XGTACX_site7060],9.12
17,GTAGACTGAAACCACACACACATATATATATATATT [CACACA_site605],9.8
18,TAATATTTCGCACTGTGTACTGAAATATTTATATCG [XGTACX_site516],9.13
19,ATAATAAGACGATAAGGTACACAAAATGTTAATATA [XGTACX_site6984],9.5
20,TAAAGCGACATTTGGAAAATATATATCCTAGCATTT [CACACA_negctrl_site327],9.16
21,TATTCGTGCAATAGTAGTACACTTAAAAATTATTCA [XGTACX_site269],8.99
22,ATTCGTTATAAAATATGTACATAAATATATATATAT [XGTACX_site2819],9.23
23,AAAATACACAGACACACACACATATAAATAAATATT [CACACA_site7871],10.1

row,Sequence,gcPBM binding intensity (ln)
1,TTATAAAATAAACTTACACACATGAAATATTATATT [CACACA_site1945],9.49
2,ACATAGATGCATATCACACATAATAATATTGTCGTA [CACACA_site4819],9.28
3,AAACAAAATAAATATGAACACACACCGTTATGCCTT [CACACA_site8347],9.88
4,TATTTGTGGATTTTTACACACATTAATATATATATA [CACACA_site3375],9.35
5,AGGAAAATTATGAATGGTACAGAATATATTAGGAGA [XGTACX_site6282],9.44
6,GCACTAAAAAAATAAACACACAGATTTATATAATAT [CACACA_site1381],9.51
7,AATAAGTTATTATTTTGTACACATAAATAATACGTT [XGTACX_site814],9.26
8,AAGGAACTATAATATACACACATAAGTGTACTTATA [CACACA_site7816],9.41
9,ATATATGCATATATTTGTACACATTTTTTTACATAA [XGTACX_site4624],9.38
10,AAAAAAACGTAAAAATGTACTTTTTGTATATAACCT [XGTACX_site7950],9.19
11,CGTAATAAAAACAAATGTACATGACCTGGACAGGTT [XGTACX_site6560],9.5
12,GTATATTTTTAAAGGTGTACTTTTTTTTTTTTTTTT [XGTACX_site721],9.26
13,ATATAAAACTATAATACACACATAAAATATATTATA [CACACA_site6588],9.73
14,TATATTTATTTATTCTGTACTGAAGACAGTTATGTA [XGTACX_site8857],8.98
15,TATATAATACAACATGCACACATATATATGTGAATC [CACACA_site8794],9.62
16,ATAAATATATATATAGTGCATATAAGCCACCTTCAA [GTGCAC_site9628],9.28
17,TACTAATATGATATATAAATATTGTTATATAATAAT [XGTACX_negctrl_site227],9.12
18,TGAATACAAATTTACGCATGTAATTTCCAGAGGGAG [TGCATGCA_site769],9
19,AAAATAAAAGAAAAAAGTACAAAATCAGATTAATTA [XGTACX_site8413],9.41
20,AATATATGTAATATATGTACTTAATTATATTTTAAT [XGTACX_site4382],9.07
21,TATAAAATATAATTAGCACACATATATAAAATATAT [CACACA_site9355],9.33
22,TTACCTTTATTGTATGAACACACATAAGCTGATACA [CACACA_site9334],9.29
23,AAAAAAAAAAAAAGAGTGCAAACTATGATAATTTAA,9.43

row,Sequence,gcPBM binding intensity (ln)
1,ACATATGAATATAATACACACTTGTATTATTAATAT [CACACA_site8546],9.4
2,AAAATTTAATATAATGCACACATAAAAAAAAAAAAA [CACACA_site7923],9.32
3,CCATTTTTTTTATACGCACACGTCATACTTTTAAAA [CACACA_site4988],9.46
4,TATATATATACATATTGTACATGTGTATATTTTTTT [XGTACX_site361],9.21
5,TTAGTTATTAAAAAAAGTACATAAGTAGATATCATC [XGTACX_site8712],9.28
6,GAATAATATGGACATACACACATATACATACATATA [CACACA_site2114],9.7
7,TTATTTCATTCTTGAAGTACGTGAAAAATGAAAACA [XGTACX_site4089],8.96
8,GGACAAGAATAGTGCACATGCAATGTTATTTTTTAT [TGCATGCA_site450],9.31
9,CGTTTTAATAAGATCACACATATAATATATATATAT [CACACA_site5159],9.18
10,ATTATAACCATATACACACCCATATAAATAAATATA [CACACA_site6926],9.73
11,TATTAAATGGCCATTACATGCAATTATTTCTAATAA [TGCATGCA_site275],8.99
12,ATATTAAATGTTATCACACACATAATTACTTCCATA [CACACA_site7160],9.66
13,TCAAATATATAGAATACACACATGGATATAAGAAAT [CACACA_site4065],9.9
14,ATTTAATTTGTTCTTACACACACATATATATATATT [CACACA_site8310],10.1
15,TCATACGAAATATAAACACACATACAATAAATAAAT [CACACA_site5156],9.92
16,ATAATATAAATACAAACACACAATTGCGTCCACATT [CACACA_site5039],9.79
17,ATATATTTTATATAATGTACATAAACCGCACACATA [XGTACX_site6061],9.46
18,TTTCAAATTTAATACACACACAAGTATATATCTATC [CACACA_site7782],9.69
19,ATTTAAAAAAAAAAAAAAAAAAAAAAAAAAAGAAAA [CACACA_negctrl_site722],8.76
20,TTTAATATTAGCATATGTACACAAATCACACGGAAA [XGTACX_site2473],9.42
